The record followed here is paper PMC10668032.

Some of the results follow. At the low end of the ranking the order means little.

The test has as its target SIX1-Q177R homeodomain (UniProt Q15475). As to the kind of experiment: universal protein binding microarray. To be noted: Universal all-10-mer PBM (8x60K, AMADID 030236), 300 nM GST-tagged protein, Alexa Fluor 488 anti-GST; buffer, salt, pH and temperature not stated; high values mean tight binding; most listed sequences are background and not binding sites; double strand, one strand shown.
For the sequence CGATTGGA, the binding signal is -0.0175 E-score.
For TCGAACGA the value was -0.082 E-score; for AGATTGTC, -0.128 E-score; for AAATTCGC, -0.158 E-score.
For TCAGGAAA the value was -0.217 E-score; for AGGAGCCC, -0.184 E-score.
Next, CAAGTCTC: -0.365 E-score; ATGGCTCG: -0.0827 E-score.
AAACGTCG: the binding signal is -0.16 E-score.
Next, CCCGCGGG: 0.0967 E-score; AGCGGGCG: -0.16 E-score; AGGCTAAG: -0.0968 E-score.
For ATTCCTAA the value was -0.0757 E-score; for ACGTGTAA, 0.413 E-score; for AAAACGCG, -0.168 E-score.
Consider ACTTCGCC, for which the binding signal was -0.163 E-score.
For ACAGAACA the value was 0.0648 E-score; for AACGTGAG, -0.0389 E-score; for GGACCGCC, -0.364 E-score.
For CCAACCAA the value was -0.0322 E-score.
For AGCGGCGA the value was -0.0932 E-score; for CCCCATGA, 0.151 E-score; for TGCGTACA, 0.18 E-score.
Take GGTCTTCA: the binding signal was -0.215 E-score.
Next, CTACTGGC: -0.249 E-score; ATCATACG: -0.0376 E-score.
Take ATTCCTTC: the binding signal is -0.18 E-score.
For CGATTGAA the value was -0.194 E-score.
For CAACAAAG the value was -0.136 E-score; for GAAACACC, 0.455 E-score.
For CTGATGAC the value was -0.126 E-score; for ATAGGGAC, -0.0211 E-score; for GAGAAGTA, -0.103 E-score.
Turning to ATAATTAG, the binding signal is -0.00722 E-score.
Consider CCGAGACC, for which the binding signal came to 0.0743 E-score.
In the case of ACGGTTCG, the binding signal was -0.146 E-score.
For GAGTGTGA, the binding signal is 0.29 E-score.
For GGGTAGTA the value was 0.161 E-score.
For TGTATAAA the value was 0.107 E-score.
Next, ACCGCTTA: 0.00813 E-score.
In the case of ATGCACAA, the binding signal is -0.134 E-score.
As to TGAGATCA, the binding signal is -0.102 E-score.
Next, CATCCTGC: -0.242 E-score.
As to AAGAGGGT, the binding signal turned out to be 0.0738 E-score.
Next, ATATTCAG: 0.00456 E-score.
Next, CAATCAAG: -0.203 E-score.
Next, AATCAGAT: 0.0332 E-score; ACACCTAA: 0.445 E-score; TAAGGTGA: -0.18 E-score.
In the case of CAAGTGCC, the binding signal is -0.166 E-score.
Next, ACCACGCT: -0.00512 E-score; GGTGGGAA: 0.125 E-score.
For CATTAAGC the value was -0.183 E-score.
Next, ATCACATG: -0.148 E-score; AATCGCCA: -0.216 E-score.
AAACACAA: the binding signal is -0.0653 E-score.
On to GCCCCCAA, for which the binding signal is -0.0513 E-score.
Next, CGTGTGCC: 0.168 E-score; CCGCCGAA: 0.0532 E-score.
For ACCCCGCT the value was 0.209 E-score; for ATGCGTGA, -0.136 E-score.
On to ATGAAGTG, for which the binding signal came out at 0.0483 E-score.
For CCAAGTAA the value was 0.0411 E-score.
Next, ATATACAA: -0.0547 E-score; AGATTAAA: -0.198 E-score; CCTTTTAC: 0.0251 E-score.
With ACACGTCC, the binding signal amounted to 0.373 E-score.
Next, ATTACCTG: -0.305 E-score; AACCCATT: -0.103 E-score.
In the case of ACGTACGT, the binding signal was -0.0962 E-score.
Next, CGGATCGC: 0.00988 E-score.
As for ATTTCCGC, the binding signal was -0.117 E-score.
Next, CGTCTCCA: -0.00369 E-score.
For ACGCTGTC the value was -0.0679 E-score; for ACCATACG, 0.137 E-score; for CCGCCAAG, -0.137 E-score.
For AACCCATG the value was -0.00656 E-score; for CGCGGATC, 0.135 E-score; for CCATTGGC, -0.1 E-score.
As to CTCAGTTA, the binding signal was -0.173 E-score.
Next, ACCGTGCA: 0.142 E-score.
For AGAAAGCA the value was -0.107 E-score; for CCGTTGCC, -0.0434 E-score; for GAATTGAC, 0.053 E-score.
Next, GCCGTTTA: 0.0221 E-score.
As for CCGGACAC, the binding signal amounted to 0.427 E-score.
Next, GAAGGCAA: -0.222 E-score; CTAGGTTC: 0.0376 E-score.
Next, CGTAAGAA: -0.151 E-score; CCTGTATC: -0.0356 E-score.
Take CAGCTATC: the binding signal was -0.128 E-score.
For TGTGTCAA the value was 0.303 E-score.
For AGTCGATG the value was -0.213 E-score; for CGAATGCA, 0.00535 E-score.
For CCGTTGAA the value was -0.1 E-score; for AGCTAAAA, -0.168 E-score; for GTGCAGTA, 0.021 E-score.
Regarding TGTAGACA, the binding signal was 0.257 E-score.
Next, AACACAGT: 0.158 E-score.
For ACATCCTA the value was -0.152 E-score.
For TAATGATA the value was -0.0829 E-score.
For GCGATAAA, the binding signal was -0.103 E-score.
With CAGCCTGG, the binding signal was found to be 0.106 E-score.
For AATACGTG the value was 0.151 E-score; for TGGGTGAA, -0.0462 E-score.
Next, AATCATGC: -0.0292 E-score; ATCTCACG: -0.18 E-score; ACACGCGT: 0.402 E-score.
For CCCTAGAA, the binding signal is 0.0766 E-score.
Next, GAGCTCGA: -0.136 E-score; CCTTACCC: 0.145 E-score; ATCGATCG: 0.0913 E-score.
With CGGTAACC, the binding signal was found to be 0.03 E-score.
On to AGACAAAG, for which the binding signal is -0.108 E-score.
Next, AGTTTAAA: 0.124 E-score; ACCGCCCG: 0.114 E-score.
For GCCGCCTA the value was -0.118 E-score; for GGTGTTCA, 0.461 E-score.
For CGAGGAAC the value was 0.197 E-score.
For the sequence ATAGACAC, the binding signal is 0.428 E-score.
Next, GGTACAAC: 0.0647 E-score; GTAATAGA: -0.083 E-score; CTACGAAA: -0.102 E-score.
For AGTTATTG the value was -0.0356 E-score.
For GACAGAAC the value was -0.0609 E-score.
With CCTCATAA, the binding signal amounted to 0.0335 E-score.
Next, GTCTAGTA: -0.0361 E-score; CGACCAAC: 0.0349 E-score; AAAGCTCC: 0.0235 E-score.
As to AGCGTGCG, the binding signal is -0.0239 E-score.
As to CCGAGTGA, the binding signal came to 0.156 E-score.
CCCTATGA: the binding signal is -0.022 E-score.
Next, CGGTCTAA: -0.13 E-score; CTAGCGCC: -0.223 E-score.
As for CTGCGAAA, the binding signal was -0.254 E-score.
For the sequence ACTTTACT, the binding signal was -0.0868 E-score.
Next, AGTATTAT: 0.0493 E-score.
Next, AATACGCG: -0.0794 E-score; ACCGTCCT: -0.0247 E-score.
Next, TCCTGTCA: -0.159 E-score; ACATTCCG: 0.0206 E-score; ATAACCCA: -0.00351 E-score.
Consider CTCGAAAG, for which the binding signal was -0.0828 E-score.
Consider CCATACAA, for which the binding signal is -0.123 E-score.
For GTGAGGTA the value was -0.0122 E-score; for ATGTAGGC, -0.286 E-score; for AACCCTGA, 0.0374 E-score.
Next, ATAACAGC: -0.0593 E-score; CTTCCGAC: 0.147 E-score; CACAACTC: 0.0689 E-score.
Regarding CCTCGACA, the binding signal was 0.218 E-score.
Next, ATGTACGC: 0.00258 E-score.
For AGCACACT the value was 0.163 E-score; for ACCTTTAA, -0.114 E-score.
For ATCGTTAA the value was -0.113 E-score.
Consider GCTCAACA, for which the binding signal was -0.00843 E-score.
On to ACACGAAC, for which the binding signal is 0.343 E-score.
Regarding GATGATCC, the binding signal is 0.0505 E-score.
With AAAGAGTG, the binding signal worked out at 0.186 E-score.
Next, CGCCAGAG: -0.0103 E-score; TTAGCCAA: -0.179 E-score; CTTGTTTA: -0.176 E-score.
Take CTCACAAG: the binding signal came to 0.147 E-score.
Next, GTCACTCA: 0.0515 E-score; AAAAGTAC: -0.28 E-score; TTGATCAA: -0.0492 E-score.
For CCCTACTA, the binding signal was 0.081 E-score.
Turning to ACTCCGCT, the binding signal was determined as 0.185 E-score.
For GCAATCAA the value was -0.318 E-score.
Consider GGCTTAAA, for which the binding signal is -0.201 E-score.
In the case of TGGTACCA, the binding signal is -0.173 E-score.
For GAAGACAA the value was -0.0398 E-score.
